Data on 34 compounds can be found in ChEMBL document CHEMBL4229546, “Structure-based design and synthesis of 1H-pyrazolo[3,4-d]pyrimidin-4-amino derivatives as Janus kinase 3 inhibitors” (Bioorg Med Chem, 2018).

The target of test [1] is T1, Tyrosine-protein kinase JAK3 (Homo sapiens, UniProt P52333).
T1 sequence (P52333 whole entry): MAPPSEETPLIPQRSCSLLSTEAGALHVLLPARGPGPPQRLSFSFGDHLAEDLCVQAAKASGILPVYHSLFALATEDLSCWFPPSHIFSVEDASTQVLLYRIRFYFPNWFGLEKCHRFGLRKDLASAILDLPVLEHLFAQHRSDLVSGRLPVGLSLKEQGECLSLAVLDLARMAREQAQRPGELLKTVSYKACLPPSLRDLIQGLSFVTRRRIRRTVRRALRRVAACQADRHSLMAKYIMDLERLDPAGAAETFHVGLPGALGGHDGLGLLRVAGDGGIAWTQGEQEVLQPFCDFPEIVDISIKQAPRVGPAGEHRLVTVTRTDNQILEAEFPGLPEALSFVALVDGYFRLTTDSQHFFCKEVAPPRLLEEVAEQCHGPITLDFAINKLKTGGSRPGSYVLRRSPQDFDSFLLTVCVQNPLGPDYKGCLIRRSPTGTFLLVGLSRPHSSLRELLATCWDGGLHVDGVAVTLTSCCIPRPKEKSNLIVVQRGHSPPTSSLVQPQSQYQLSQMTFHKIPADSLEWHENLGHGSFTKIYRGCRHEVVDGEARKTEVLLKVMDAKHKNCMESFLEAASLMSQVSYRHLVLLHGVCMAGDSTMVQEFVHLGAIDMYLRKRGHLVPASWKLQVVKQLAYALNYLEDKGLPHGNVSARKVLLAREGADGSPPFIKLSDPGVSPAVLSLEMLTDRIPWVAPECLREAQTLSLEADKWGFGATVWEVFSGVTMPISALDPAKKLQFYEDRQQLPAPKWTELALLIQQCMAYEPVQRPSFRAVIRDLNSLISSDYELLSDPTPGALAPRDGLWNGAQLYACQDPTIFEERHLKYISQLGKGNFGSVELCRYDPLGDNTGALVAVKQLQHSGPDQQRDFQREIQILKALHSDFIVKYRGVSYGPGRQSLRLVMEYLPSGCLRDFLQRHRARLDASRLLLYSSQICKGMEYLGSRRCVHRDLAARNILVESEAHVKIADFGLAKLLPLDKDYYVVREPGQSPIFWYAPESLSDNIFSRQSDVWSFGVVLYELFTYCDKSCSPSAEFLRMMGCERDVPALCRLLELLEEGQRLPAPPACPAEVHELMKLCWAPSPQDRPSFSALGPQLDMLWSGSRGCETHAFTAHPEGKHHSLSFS

Test [2] deals with Tyrosine-protein kinase JAK2 (Homo sapiens, UniProt O60674).
Chain of Tyrosine-protein kinase JAK2 (O60674 whole entry): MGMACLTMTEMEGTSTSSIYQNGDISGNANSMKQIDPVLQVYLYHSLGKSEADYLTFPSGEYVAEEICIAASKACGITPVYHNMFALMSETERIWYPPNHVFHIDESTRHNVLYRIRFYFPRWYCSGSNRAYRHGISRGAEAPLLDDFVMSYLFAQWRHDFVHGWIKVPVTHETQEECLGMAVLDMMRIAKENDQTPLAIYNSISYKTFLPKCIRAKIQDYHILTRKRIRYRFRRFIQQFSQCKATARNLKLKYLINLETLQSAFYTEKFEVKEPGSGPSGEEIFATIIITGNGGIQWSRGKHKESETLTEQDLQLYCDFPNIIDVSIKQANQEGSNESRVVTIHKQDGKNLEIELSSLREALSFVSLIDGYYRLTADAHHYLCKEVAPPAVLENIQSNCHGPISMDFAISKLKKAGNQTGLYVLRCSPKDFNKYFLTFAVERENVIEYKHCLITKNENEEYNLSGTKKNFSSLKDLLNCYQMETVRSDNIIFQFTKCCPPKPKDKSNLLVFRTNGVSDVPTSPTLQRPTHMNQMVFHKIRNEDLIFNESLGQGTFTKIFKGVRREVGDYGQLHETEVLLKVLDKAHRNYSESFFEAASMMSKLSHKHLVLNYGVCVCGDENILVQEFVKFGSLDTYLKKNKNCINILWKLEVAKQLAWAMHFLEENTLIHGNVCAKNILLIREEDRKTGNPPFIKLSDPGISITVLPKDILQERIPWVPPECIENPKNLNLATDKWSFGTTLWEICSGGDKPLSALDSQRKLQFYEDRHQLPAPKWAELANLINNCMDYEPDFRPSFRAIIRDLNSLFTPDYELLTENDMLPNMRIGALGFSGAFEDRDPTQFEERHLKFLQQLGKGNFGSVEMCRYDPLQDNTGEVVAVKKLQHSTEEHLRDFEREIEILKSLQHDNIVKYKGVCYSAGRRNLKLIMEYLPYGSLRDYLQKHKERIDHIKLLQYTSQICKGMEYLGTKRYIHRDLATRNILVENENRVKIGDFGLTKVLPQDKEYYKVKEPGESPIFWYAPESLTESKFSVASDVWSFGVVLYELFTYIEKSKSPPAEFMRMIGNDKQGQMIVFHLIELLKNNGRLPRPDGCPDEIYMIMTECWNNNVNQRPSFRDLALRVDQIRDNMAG

SMILES strings stand for the structures. Where only a bound is given, the exact number is not on record here.

As a reminder, the IC50 is the midpoint of a concentration-inhibition curve. A high value points to a need for much substance. Turning to `Cn1cc(-c2nn(CC3CCN(C#N)CC3)c3ncnc(N)c23)cn1`, in test [1], the IC50 was more than 1 µM. For `CN(C)CC(=O)N1CCCC(Cn2nc(-c3cnn(C)c3)c3c(N)ncnc32)C1` (centres undefined), the IC50 in test [2] was found to be 1.95 µM; in test [1], 0.591 µM. In turn, `COCCn1cc(-c2nn(CC3CCN(C(=O)CC#N)CC3)c3ncnc(N)c23)cn1` had an IC50 in test [1] of 0.315 µM. In other words, the sub-micromolar range.

`COCCn1cc(-c2nn(C3CCCN(C(=O)CC#N)C3)c3ncnc(N)c23)cn1` (centres undefined): the IC50 worked out at 0.697 µM in test [2] and 0.0577 µM in test [1]. The matching figures for `Cn1cc(-c2nn(CC3CCCN(C(=O)CC#N)C3)c3ncnc(N)c23)cn1` (centres undefined): 0.0784 µM and 0.0561 µM.

For the compound `Cn1cc(-c2nn(C3CCN(C#N)CC3)c3ncnc(N)c23)cn1`, the IC50 in test [2] amounted to 0.104 µM; in test [1] it was 0.0943 µM. For the compound `C=CC(=O)Nc1cccc(Cn2nc(-c3cnn(CCOC)c3)c3c(N)ncnc32)c1`, in test [1], the IC50 was found to be 0.154 µM. For `CN(C)CC(=O)N1CCCC(n2nc(-c3cnn(C)c3)c3c(N)ncnc32)C1` (centres undefined), the midpoint of inhibition in test [1], the IC50, lay at 0.583 µM. `COCCn1cc(-c2nn(CC3CCCN(C(=O)CN(C)C)C3)c3ncnc(N)c23)cn1` (centres undefined) yielded an IC50 in test [1] of 0.787 µM. Take `C=CC(=O)N1CCC(Cn2nc(-c3cnn(C)c3)c3c(N)ncnc32)CC1`: the IC50 in test [2] is 0.469 µM; in test [1], 0.197 µM.

`Cn1cc(-c2nn(C3CCCN(C#N)C3)c3ncnc(N)c23)cn1` (centres undefined): the IC50 in test [2] came out at 0.168 µM; in test [1], 0.115 µM. The matching figures for `C=CC(=O)N1CCCC(Cn2nc(-c3cnn(C)c3)c3c(N)ncnc32)C1` (centres undefined): 0.808 µM and 0.0192 µM. Turning to `COCCn1cc(-c2nn(CC3CCN(C(=O)CN(C)C)CC3)c3ncnc(N)c23)cn1`, in test [1], the IC50 was more than 1 µM. As for `C=CC(=O)Nc1cccc(Cn2ncc3c(Nc4cnn(CCOC)c4)ncnc32)c1`, inhibition in test [1] was half-maximal at 0.267 µM (IC50).

`COCCn1cc(-c2nn(C3CCCN(C(=O)CN(C)C)C3)c3ncnc(N)c23)cn1` (centres undefined) returned an IC50 in test [1] of 0.756 µM.

Take `COCCn1cc(-c2nn(CC3CCCN(C#N)C3)c3ncnc(N)c23)cn1` (centres undefined): the figures for the IC50 in test [2] and in test [1] were 1.4 µM and 0.143 µM, respectively. In the case of `C=CC(=O)N1CCCC(n2nc(-c3cnn(C)c3)c3c(N)ncnc32)C1` (centres undefined), the IC50 came to 0.396 µM in test [2] and 0.0062 µM in test [1]. In test [1], `Cn1cc(-c2nn(CC3CCCN(C#N)C3)c3ncnc(N)c23)cn1` (centres undefined) gave an IC50 of 0.189 µM. This counts as sub-micromolar. As for `COCCn1cc(-c2nn(CC3CCCN(C(=O)CC#N)C3)c3ncnc(N)c23)cn1` (centres undefined), the IC50 in test [1] turned out to be 0.0874 µM. Compared with the last compound, the IC50 is about 2.2-fold lower. As for `COCCn1cc(-c2nn(C3CCCN(C#N)C3)c3ncnc(N)c23)cn1` (centres undefined), the figures for the IC50 in test [2] and in test [1] were 0.197 µM and 0.144 µM, respectively. Regarding `C=CC(=O)N1CCC(n2nc(-c3cnn(CCOC)c3)c3c(N)ncnc32)C1` (centres undefined), the IC50 in test [2] worked out at 0.509 µM; in test [1] it was 0.0156 µM. Turning to `CN(C)CC(=O)N1CCC(n2nc(-c3cnn(C)c3)c3c(N)ncnc32)CC1`, the half-maximal inhibitory concentration (IC50) in test [2] and in test [1] was more than 1 µM in each case. In the case of `Cn1cc(-c2nn(C3CCN(C(=O)CC#N)CC3)c3ncnc(N)c23)cn1`, the figures for the half-inhibitory concentration (IC50) in test [2] and in test [1] were 0.282 µM and 0.395 µM, respectively.

`COCCn1cc(-c2nn(C3CCN(C(=O)CC#N)CC3)c3ncnc(N)c23)cn1`: the IC50 in test [2] stood at 0.367 µM; in test [1], 0.374 µM. `CN(C)CC(=O)N1CCC(Cn2nc(-c3cnn(C)c3)c3c(N)ncnc32)CC1` gave an IC50 in test [1] of more than 1 µM. For `Cn1cc(-c2nn(C3CCCN(C(=O)CC#N)C3)c3ncnc(N)c23)cn1` (centres undefined), the results for the IC50 in test [2] and in test [1] were 0.59 µM and 0.0323 µM, respectively.

As to `C=CC(=O)N1CCC(Cn2nc(-c3cnn(CCOC)c3)c3c(N)ncnc32)CC1`, the IC50 in test [2] was found to be 0.497 µM; in test [1], 0.324 µM. With `COCCn1cc(-c2nn(CC3CCN(C#N)CC3)c3ncnc(N)c23)cn1`, the IC50 in test [1] was more than 1 µM.

`COCCn1cc(-c2nn(C3CCN(C#N)CC3)c3ncnc(N)c23)cn1`: the IC50 in test [2] is 0.147 µM; in test [1] it was 0.124 µM. In the case of `C=CC(=O)N1CCC(n2nc(-c3cnn(C)c3)c3c(N)ncnc32)C1` (centres undefined), the IC50 in test [2] is 0.499 µM; in test [1], 0.0099 µM. As for `C=CC(=O)N1CCCC(n2nc(-c3cnn(CCOC)c3)c3c(N)ncnc32)C1` (centres undefined), the IC50 amounted to 0.59 µM in test [2] and 0.0213 µM in test [1]. `Cn1cc(-c2nn(CC3CCN(C(=O)CC#N)CC3)c3ncnc(N)c23)cn1`: the midpoint of inhibition in test [1], the IC50, lay at 0.278 µM. With `C=CC(=O)N1CCCC(Cn2nc(-c3cnn(CCOC)c3)c3c(N)ncnc32)C1` (centres undefined), the IC50 in test [2] was found to be 1.42 µM; in test [1] it was 0.0363 µM. Compound `COCCn1cc(-c2nn(C3CCN(C(=O)CN(C)C)CC3)c3ncnc(N)c23)cn1` yielded an IC50 in test [1] of more than 1 µM.
